Results from PubChem BioAssay AID1030 (National Center for Advancing Translational Sciences (NCATS), 2008).
The campaign covered roughly 220,000 compounds. About 16,000 (7.3%) were called active. Inconclusive means that the source gave no clear call. Such entries were picked first, then a sample of the others. Calls follow the shape of the dose curve; as a rule, active = well fitted inhibition curve with a large enough effect (not every such curve was filed as active); inconclusive = small, poorly fitted or top-dose-only effect, or another doubt; inactive = no such curve, though single readings can be large or run the other way. No potency is given beside an inconclusive call; the fits are too rough.
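For activity, negative = inhibition in this document: plate controls were no enzyme wells and a reference inhibitor.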
Potency is read from the fitted curve at half-maximal effect; tags tell the direction and shape of the fitted curve.

These molecules were tested against Aldehyde dehydrogenase 1A1 (Homo sapiens) (UniProt P00352) (assay: qHTS Assay for Inhibitors of Aldehyde Dehydrogenase 1 (ALDH1A1)). Settings: Purified ALDH1A1, NADH fluorescence, propionaldehyde substrate; series mostly up to 75.3 µM; activity, negative = inhibition: at the top concentration.
Sequence of UniProt P00352 (P00352 whole entry, looked up): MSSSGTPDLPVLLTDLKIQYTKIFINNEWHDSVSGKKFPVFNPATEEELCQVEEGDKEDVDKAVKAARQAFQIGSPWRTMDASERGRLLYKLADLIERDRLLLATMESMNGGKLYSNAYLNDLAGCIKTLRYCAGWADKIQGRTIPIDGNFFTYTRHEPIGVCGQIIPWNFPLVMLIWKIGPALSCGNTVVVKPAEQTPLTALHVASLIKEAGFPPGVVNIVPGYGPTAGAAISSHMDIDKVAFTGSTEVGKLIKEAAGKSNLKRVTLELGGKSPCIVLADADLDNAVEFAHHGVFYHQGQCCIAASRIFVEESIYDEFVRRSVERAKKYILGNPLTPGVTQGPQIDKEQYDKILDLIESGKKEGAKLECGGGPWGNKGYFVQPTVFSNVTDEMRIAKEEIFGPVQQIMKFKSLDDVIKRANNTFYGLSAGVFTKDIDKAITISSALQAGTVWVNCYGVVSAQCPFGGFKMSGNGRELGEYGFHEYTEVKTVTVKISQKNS
For CCC1CCC(c2nnc(-c3ccc(Br)cc3)o2)CC1 (stereo unspecified), the Potency was inconclusive [inhibitor, single point]. For Cc1cccc(/C=N/NC(=O)NC2CCCCC2)c1, the “activity, negative = inhibition” value was inactive: 7.91%. In the case of COc1ccc2cc(CCN3C(=O)c4ccccc4C3=O)c(=O)[nH]c2c1, the Potency is reported as inconclusive [inhibitor, partial curve]. In the case of CCc1cccc(OCCN2CCCC2)c1, the Potency is reported as active: 22.4 µM. In the case of C=CC1=C[C@@H](O)C2OC2C12OCCCO2 (stereo partly specified), the activity, negative = inhibition is reported as inactive: 1.08% [at 13.5 µM]. COc1ccc2nc(SCC(=O)Nc3ccccc3OC)[nH]c2c1 was tested, and the Potency was inconclusive [inhibitor, single point]. For NC(=S)N/N=C/c1cccc(O)c1O, the “activity, negative = inhibition” value was inactive: 2.62%. For O=C(NN1C(=O)C2C3C=CC(O3)C2C1=O)c1cccc(O)c1 (stereo unspecified), the Potency was active: 20 µM. In the case of CC1CCCC(C)N1/N=C/C=C/c1ccccc1[N+](=O)[O-] (stereo unspecified), the Potency is reported as active: 3.55 µM. For O=C(Nc1cc(S(=O)(=O)N2CCOCC2)ccc1O)c1ccco1, the Potency was inconclusive [inhibitor, single point]. In the case of CCSc1cc(C2C(C(=O)OC)=C(C)NC3=C2C(=O)CCC3)c(C)o1 (stereo unspecified), the Potency is reported as inconclusive [inhibitor, single point]. With COc1ccc(CSc2nnc(C)n2N)cc1[N+](=O)[O-] the Potency was active: 12.6 µM. In the case of COc1ccc(CCNC(=O)/C(=C/c2cccnc2)NC(=O)c2ccccc2)cc1, the Potency is reported as inconclusive [inhibitor, partial curve]. N#Cc1cc2c(nc1Cl)CCCC2 was tested, and the “activity, negative = inhibition” value was inactive: 2.97%. In the case of COc1ccc(C(=O)N/N=C/C(C)c2ccccc2)cc1OC (stereo unspecified), the “activity, negative = inhibition” value is reported as inactive: -3.79%. Cc1ccccc1Nc1cc(=O)oc2ccccc12 was tested, and the Potency was active: 14.1 µM. O=C(COC(=O)CNC(=O)c1ccc(Br)cc1)NCCC1=CCCCC1 was tested, and the Potency was inconclusive [inhibitor, single point]. With Cc1ccc(C)n1-c1nc(=S)[nH][nH]1 the Potency was active: 25.1 µM. With Cc1nn(-c2ccc(F)cc2)c(Cl)c1/C=C1\C(=O)Nc2ccccc21 the “activity, negative = inhibition” value was inactive: 9.21%. For COc1ccccc1NC(=O)c1cc2n(n1)C(C(F)(F)F)CC(c1ccc3c(c1)OCO3)N2 (stereo unspecified), the Potency was inconclusive [inhibitor, single point]. Cc1cc(/C=N/NC(=O)c2c(Br)cnn2C)c(C)n1-c1cccc(Br)c1 was tested, and the Potency was inconclusive [inhibitor, single point]. In the case of C=CCn1cc(-c2cccc(Cl)c2)cc(C#N)c1=O, the Potency is reported as inconclusive [inhibitor, single point]. CCCCn1c(=O)[nH]c(=O)c2c(C(=O)OCC)cc(-c3ccc(OC(F)F)cc3)nc21 was tested, and the Potency was inconclusive [inhibitor, partial curve]. With N#Cc1nc(-c2ccccc2F)oc1NCCc1ccccn1 the Potency was inconclusive [inhibitor, partial curve]. With COc1ccccc1N1CCN(C(=O)CCNS(=O)(=O)c2ccc(Br)s2)CC1 the Potency was inconclusive [inhibitor, partial curve]. For COc1ccc(N2CCN(c3ncnc4c3cnn4-c3ccc(C)cc3C)CC2)cc1, the Potency was inconclusive [inhibitor, single point]. With COc1ccc(C(=O)NCCSc2ccc(C)cc2)cc1 the Potency was active: 10 µM. With C=CCN1C(=O)C(CC(=O)Nc2ccccc2)SC1=Nc1c(C)n(C)n(-c2ccccc2)c1=O (stereo unspecified) the “activity, negative = inhibition” value was inactive: 6.76%. In the case of O=C(NCCC1=CCCCC1)c1cnc2n(c1=O)CCS2, the Potency is reported as inconclusive [inhibitor, partial curve]. With CCCCN1C(=O)C(=Nc2cccc3cnccc23)c2ccccc21 the Potency was active: 0.631 µM. COc1ccc2c(c1)O[C@@H](c1cccc(C(F)(F)F)c1)[C@H](OC(=O)NCc1ccc3c(c1)OCO3)C2=O was tested, and the “activity, negative = inhibition” value was inactive: -8.25%. For CCOc1ccc2nc(SCC(=O)N3CCCCCC3)c(C#N)cc2c1, the Potency was inconclusive [inhibitor, partial curve]. In the case of O=C(c1ccco1)N1CCN(C(c2cccs2)c2nnnn2C2CCCCC2)CC1 (stereo unspecified), the Potency is reported as active: 17.8 µM. With O=C(N/N=C/c1cn(-c2cccs2)nc1-c1ccccc1)c1ccc(O)cc1 the Potency was inconclusive [inhibitor, single point]. With C/C(CC(=O)Nc1ccc2c(c1)OCO2)=N\NC(=O)C(c1ccccc1)c1ccccc1 the Potency was active: 3.16 µM. Cn1nnnc1SCc1csc(C2C(C#N)=C(N)OC3=C2C(=O)CCC3)c1 (stereo unspecified) was tested, and the Potency was inconclusive [inhibitor, partial curve, poor fit]. With CS/C(N)=N/N=C/c1ccc([N+](=O)[O-])cc1 the Potency was inconclusive [inhibitor, single point]. With Cc1ccc(-c2n[nH]c(=S)n2/N=C/c2cccs2)cc1 the Potency was inconclusive [inhibitor, single point]. In the case of Cc1ccc(-c2ccccc2NC(=O)CCl)o1, the Potency is reported as inconclusive [inhibitor, partial curve]. With Cc1ccc2cccc(OC(=O)/C=C\c3ccccc3)c2n1 the “activity, negative = inhibition” value was inactive: -2.95%. N#CCCN1CCN(C(=S)c2ccc(-c3ccc(Cl)cc3)o2)CC1 was tested, and the Potency was active: 4.47 µM. In the case of Cc1cc(C)cc(N/C(N)=N/c2nc(C)cc(C)n2)c1, the Potency is reported as inconclusive [inhibitor, single point]. In the case of CC(=O)N(CCCN(C)C)c1nc2ccc(C)cc2s1, the “activity, negative = inhibition” value is reported as inactive: 9.7%. For CC1(C)COC2(OC1)C(=O)N(CN1CCOCC1)c1ccccc12, the “activity, negative = inhibition” value was inactive: -5.24%. With CC(C)CCSc1nc(N)c(C#N)cc1C#N the Potency was inconclusive [inhibitor, single point]. In the case of COc1ccc(Cn2c(SCc3ccc(C)cc3)nc3cc(OC)c(OC)cc3c2=N)cc1Cl, the Potency is reported as inconclusive [inhibitor, single point]. For N/N=c1\sc2ccccc2n1-c1ccccc1, the Potency was inconclusive [inhibitor, partial curve, poor fit]. CSc1ccc(/C=N/NC(=O)c2ccc(C)c(C)c2)cc1 was tested, and the “activity, negative = inhibition” value was inactive: 7.81%. For COc1ccc(CCNC(=O)CN(CCc2ccccc2)S(C)(=O)=O)cc1OC, the Potency was inconclusive [inhibitor, single point]. CCN(CC)S(=O)(=O)c1ccc(NC(=O)C(C)N(c2ccc(OC)cc2)S(C)(=O)=O)cc1 (stereo unspecified) was tested, and the Potency was inconclusive [inhibitor, partial curve]. CCn1cc(C(=O)OCC(=O)c2cc(C)n(-c3ccc(OC(F)F)cc3)c2C)c(=O)c2ccc(C)nc21 was tested, and the Potency was active: 10 µM. In the case of O=C(CC(c1cccs1)S(=O)(=O)c1ccccc1)c1ccc(F)cc1 (stereo unspecified), the Potency is reported as active: 25.1 µM. O=C(Nc1ccccc1C(=O)NC(Cc1ccccc1)C(=O)O)c1ccccc1 (stereo unspecified) was tested, and the Potency was inconclusive [inhibitor, single point]. For O=C(CCCSc1nc2ccccc2[nH]1)N1CCN(c2ccc([N+](=O)[O-])cc2)CC1, the Potency was inconclusive [inhibitor, single point]. For COc1ccc(C(=N/O)/C(=N/O)c2ccc(OC)cc2)cc1, the Potency was inconclusive [inhibitor, partial curve]. Cc1oc2cc(O)ccc2c(=O)c1Oc1ccccc1Br was tested, and the Potency was inconclusive [inhibitor, partial curve]. For c1ccc(Sc2cnc3ccccc3n2)cc1, the “activity, negative = inhibition” value was inactive: -10.7%. For COCCN1C(=O)c2cc(C(=O)Nc3ccc(OC)c(OC)c3)ccc2C1Nc1ccc(OC)c(OC)c1 (stereo unspecified), the “activity, negative = inhibition” value was inactive: -6.52%. In the case of N#CCCN(C(=O)CN1C(=O)NC2(CCCC2)C1=O)c1ccccc1F, the Potency is reported as active: 7.94 µM. CCOC(=O)N1CCN(C(=O)c2cc3c(s2)-c2ccc(Cl)cc2S(=O)(=O)C3)CC1 was tested, and the “activity, negative = inhibition” value was inactive: -2.67%. CCn1c2ccccc2c2cc(NC(=O)C/C(C)=N/NC(=O)c3ccccc3N)ccc21 was tested, and the Potency was inconclusive [inhibitor, partial curve]. Cc1cc(=O)oc2cc(OCC(=O)N3CCc4ccccc4C3)ccc12 was tested, and the Potency was inconclusive [inhibitor, partial curve]. With O=C(COc1ccccc1)N/N=C/c1cc2c(cc1[N+](=O)[O-])OCO2 the “activity, negative = inhibition” value was inactive: -16.9%. With O=S(=O)(c1cccc2c(Cl)cccc12)N1CCCNCC1 the Potency was “inactive”. COCCOC(=O)c1c(NC(=O)CNc2ccc(C)c(F)c2)sc(C(N)=O)c1C was tested, and the Potency was inconclusive [inhibitor, single point]. In the case of COc1ccc(-c2c(C)nc(N)nc2-c2ccc(OCc3ccc(C)cc3)cc2O)cc1OC, the “activity, negative = inhibition” value is reported as inactive: 11.5%. For O=C(CCl)Nc1cc(S(=O)(=O)N2CCCCCC2)ccc1Cl, the Potency was inconclusive [inhibitor, single point]. For CC(=O)Nc1ccc(S(=O)(=O)NC2=C(N3CCN(Cc4ccccc4)CC3)C(=O)c3ccccc3C2=O)cc1, the Potency was active: 15.8 µM. In the case of COCC(=O)Nc1nc2ccc(S(C)(=O)=O)cc2s1, the “activity, negative = inhibition” value is reported as inactive: 8.86%. For CC(C)(C)OC(=O)N1CCC[C@H]1c1nnc(SCc2ccccc2F)o1, the “activity, negative = inhibition” value was inactive: 5.97%. In the case of Cc1c(-c2ccccc2)oc2c(C(=O)N3CCN(c4ccccc4F)CC3)cccc2c1=O, the “activity, negative = inhibition” value is reported as inactive: 11.2%. For Cc1ccc(-n2nc(-c3ccco3)cc2C(=O)NCc2cccnc2)cc1, the Potency was inconclusive [inhibitor, partial curve]. CC(Sc1nc2ccccc2[nH]1)C(=O)Nc1ccccc1F (stereo unspecified) was tested, and the “activity, negative = inhibition” value was inactive: 11.9%. With N#Cc1c(C(F)(F)F)cc(-c2cccs2)nc1N1CCCCC1 the Potency was inconclusive [inhibitor, partial curve]. In the case of O=C(Nc1ccc(S(=O)(=O)NCC2CCCO2)cc1)c1ccccc1 (stereo unspecified), the “activity, negative = inhibition” value is reported as inactive: -4.3%. O=C1N=c2ccc(Br)cc2=C1c1sc(=S)n(NS(=O)(=O)c2ccccc2)c1O was tested, and the Potency was inconclusive [inhibitor, single point].
